Converted amounts (≈) assume the structure as drawn.
What was measured:
[1] = tested on: DNA, RNA, and protein synthesis in E. coli tolC cultures; experiment: macromolecular synthesis (MMS) assay; conditions: for specific inhibition of protein synthesis in cells (MMS): E. coli tolC cells
[2] = tested on: DNA, RNA, and protein synthesis in E. coli tolC cultures; conditions: E. coli tolC mutant and S. aureus cultures; cited from earlier work

SMILES	specific inhibition of protein synthesis in cells (MMS) [1]	also measured
COc1cc(Cl)cc(CN2CCc3nc(-c4ccccn4)[nH]c(=O)c3C2)c1OC [Compound 323203]	specific inhibition of protein synthesis	–
CC[C@H]1OC(=O)C[C@@H](O)[C@H](C)[C@@H](O[C@@H]2O[C@H](C)[C@@H](O[C@H]3C[C@@](C)(O)[C@@H](O)[C@H](C)O3)[C@H](N(C)C)[C@H]2O)[C@@H](CC=O)C[C@@H](C)C(=O)/C=C/C(C)=C/[C@@H]1CO[C@@H]1O[C@H](C)[C@@H](O)[C@@H](OC)[C@H]1OC [tylosin, reference compound]	–	IC50 ([1]; Escherichia coli, read-out: IC50 in MMS assay): 11.6 µg/mL (≈ 12.7 µM)
O=c1[nH]c(-c2ccccn2)nc2c1CN(Cc1ccccc1Cl)CC2 [Compound 323219]	specific inhibition of protein synthesis	MMS data: specificity for protein synthesis in the cell [2]: specific inhibitors of protein synthesis in the cell; IC50 in MMS assay ([1]; E. coli tolC cultures, compound titrated): 6.2 µg/mL (≈ 17.6 µM)
O=c1[nH]c(-c2ccccn2)nc2c1CN(CCc1ccc(Cl)cc1)CC2 [Compound 323370]	–	MMS data: specificity for protein synthesis in the cell [2]: specific inhibitors of protein synthesis in the cell
O=c1[nH]c(-c2ccccn2)nc2c1CN(Cc1cccc(Cl)c1)CC2 [Compound 323220]	specific inhibition of protein synthesis	–
O=c1[nH]c(-c2ccccn2)nc2c1CN(Cc1ccc(Cl)cc1)CC2 [Compound 323216]	specific inhibition of protein synthesis	–
COc1ccc(CN2CCc3nc(-c4ccccn4)[nH]c(=O)c3C2)c(C)c1C [Compound 323202]	specific inhibition of protein synthesis	–
